Assay results reported in paper PMC12505454 (The Febs Journal, 2025).
pIC50: −log10 of the molar value. Like-named read-outs stand apart in the source and are kept apart here.

How the values were obtained:
adenylyl cyclase Rv1625c [1] = biological target: T1, adenylyl cyclase Rv1625c (Mycobacterium tuberculosis, UniProt P9WQ35); experiment: biochemical
T1 construct: gene cya; Rv1625c AC holoenzyme

adenylyl cyclase Rv1625c [2] = biological target: T1, adenylyl cyclase Rv1625c; experiment: biochemical

T1 sequence (P9WQ35 whole entry): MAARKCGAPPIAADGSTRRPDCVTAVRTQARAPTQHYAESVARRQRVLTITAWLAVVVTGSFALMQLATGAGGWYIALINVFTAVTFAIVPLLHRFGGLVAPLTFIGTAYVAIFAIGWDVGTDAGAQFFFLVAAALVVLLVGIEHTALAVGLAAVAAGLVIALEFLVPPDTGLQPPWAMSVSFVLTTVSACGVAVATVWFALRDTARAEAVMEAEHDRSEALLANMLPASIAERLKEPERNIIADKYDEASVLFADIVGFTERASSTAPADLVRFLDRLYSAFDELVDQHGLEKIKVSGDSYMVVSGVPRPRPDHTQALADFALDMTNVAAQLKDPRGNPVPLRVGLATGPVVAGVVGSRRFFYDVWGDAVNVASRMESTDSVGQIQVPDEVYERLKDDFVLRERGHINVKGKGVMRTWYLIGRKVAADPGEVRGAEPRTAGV

SMILES	pIC50 (adenylyl cyclase Rv1625c [1])	pIC50 (adenylyl cyclase Rv1625c [2])
CCCCCC/C=C\CCCCCCCCCC(=O)O [cis-vaccenic acid]	4.75	–
CCCCCCCC/C=C/CCCCCCCC(=O)O [elaidic acid, (E)-9-octadecenoic acid]	5.05	–
CCCCCCCC/C=C\CCCCCCCC(=O)O [oleic acid, (Z)-9-octadecenoic acid]	–	4.74
CCCCCC/C=C/CCCCCCCCCC(=O)O [trans-vaccenic acid]	5.05	–
